Experimental data reported in US11999759B2, “Boronic acid derivatives and therapeutic uses thereof” (Qpex Biopharma, Inc., priority 2016, dated 2024).
At least one read-out could not be matched to a standard name with certainty.

Tests used:
KP1054 (VIM-1) = assay: Biapenem potentiation (MPC@1), strain KP1054; assay type: cell-based; settings: minimum BLI concentration inhibiting growth with biapenem at 1 (MPC@1); BLI up to 40
KP1081 (NDM-1) = assay: Biapenem potentiation (MPC@1), strain KP1081; assay type: cell-based; settings: minimum BLI concentration inhibiting growth with biapenem at 1 (MPC@1); BLI up to 40
EC1010 (CMY-6) = assay: Tigemonam potentiation (MPC@4), strain EC1010; assay type: cell-based; settings: minimum BLI concentration inhibiting growth with tigemonam at 4 ag/mL (so in the source); BLI up to 40
ECL1002 [1] = assay: Tigemonam potentiation (MPC@4), strain ECL1002; assay type: cell-based; settings: minimum BLI concentration inhibiting growth with tigemonam at 4 ag/mL (so in the source); BLI up to 40
KP1086 (OXA-48) = assay: Biapenem potentiation (MPC@1), strain KP1086; assay type: cell-based; settings: minimum BLI concentration inhibiting growth with biapenem at 1 (MPC@1); BLI up to 40
From the text: (§1) Biapenem was present in the test medium at 1 Dg/mL. […] Table 4 summarizes the BLI potency of biapenem potentiation (MPC@1) for two strains overexpressing class A (KPC) and class D (OXA-48) carbapenemases. Biapenem MIC for each strain is also shown.

ECL1002 [2] = assay: Aztreonam potentiation (MPC@4), strain ECL1002; settings: minimum BLI concentration inhibiting growth with aztreonam at 4 μg/mL; BLI up to 40 μg/mL
KP1004 (KPC-2) [3] = assay: Aztreonam potentiation (MPC@4), strain KP1004; settings: minimum BLI concentration inhibiting growth with aztreonam at 4 μg/mL; BLI up to 40 μg/mL
AB1053 (OXA-72) = assay: Meropenem potentiation (MPC@8), strain AB1053; assay type: cell-based, Acinetobacter baumannii; settings: minimum BLI concentration inhibiting growth with meropenem at 8 (MPC@8); BLI up to 20
KP1004 (KPC-2) [4] = assay: Biapenem potentiation (MPC@1), strain KP1004; assay type: cell-based; settings: minimum BLI concentration inhibiting growth with biapenem at 1 (MPC@1); BLI up to 40
From the text: as §1

| SMILES | BPM MPC1 KP1054 VIM-1 (KP1054 (VIM-1)) | BPM MPC1 KP1081 NDM-1 (KP1081 (NDM-1)) | TIG MPC4 CMY-6 EC1010 (EC1010 (CMY-6)) | TIG MPC4 ECL1002 (ECL1002 [1]) | BPM MPC1 OXA-48 KP1086 (KP1086 (OXA-48)) | AZT MPC4 ECL1002 (ECL1002 [2]) | AZT MPC4 KPC-2 KP1004 (KP1004 (KPC-2) [3]) | MPM MPC8 AB1053 OXA-72 (AB1053 (OXA-72)) | BPM MPC1 KP1004 KPC-2 (KP1004 (KPC-2) [4]) |
| --- | --- | --- | --- | --- | --- | --- | --- | --- | --- |
| O=C(O)c1cccc2c1OB(O)CC21CC1 [Compound 14, 4,4-dihydroxyspiro[5-oxa-4-boranuidabicyclo[4.4.0]deca-1(6),7,9-triene-2,1′-cyclopropane]-7-carboxylic acid] | Y (Y = 5 μg/mL < MPC@1 ≤ 20 μg/mL) | X (X = MPC@1 ≤ 5 μg/mL) | X (X = MPC@4 ≤ 5 μg/mL) | X (X = MPC@4 ≤ 5 μg/mL) | X (X = MPC@1 ≤ 5 μg/mL) | Y (Y = 5 μg/mL < MPC@4 ≤ 20 μg/mL) | X (X = MPC@4 ≤ 5 μg/mL) | Z (Z = MPC@1 > 20 μg/mL) | X (X = MPC@1 ≤ 5 μg/mL) |
| O=C(O)c1c(F)ccc2c1OB(O)CC21CC1 [Compound 15, 8-fluoro-4,4-dihydroxy-spiro[5-oxa-4-boranuidabicyclo[4.4.0]deca-1(6),7,9-triene-2,1′-cyclopropane]-7-carboxylic acid] | Z (Z = MPC@1 > 20 μg/mL) | X (X = MPC@1 ≤ 5 μg/mL) | X (X = MPC@4 ≤ 5 μg/mL) | X (X = MPC@4 ≤ 5 μg/mL) | X (X = MPC@1 ≤ 5 μg/mL) | X (X = MPC@4 ≤ 5 μg/mL) | X (X = MPC@4 ≤ 5 μg/mL) | Z (Z = MPC@1 > 20 μg/mL) | X (X = MPC@1 ≤ 5 μg/mL) |
| O=C(O)c1cccc2c1OB(O)[C@@H]1C[C@H]21 [Compound 16, (1aR,7bS)-2,2-dihydroxy-1a,7b-dihydro-1H-cyclopropa[c][1,2]benzoxaborinine-4-carboxylic acid] | X (X = MPC@1 ≤ 5 μg/mL) | X (X = MPC@1 ≤ 5 μg/mL) | X (X = MPC@4 ≤ 5 μg/mL) | X (X = MPC@4 ≤ 5 μg/mL) | X (X = MPC@1 ≤ 5 μg/mL) | X (X = MPC@4 ≤ 5 μg/mL) | X (X = MPC@4 ≤ 5 μg/mL) | Y (Y = 5 μg/mL < MPC@1 ≤ 20 μg/mL) | X (X = MPC@1 ≤ 5 μg/mL) |
| O=C(O)c1c(OCCF)ccc2c1OB(O)C1CC21 (stereo not drawn) [Compound 17, 5-(2-fluoroethoxy)-2,2-dihydroxy-1a,7b-dihydro-1H-cyclopropa[c][1,2]benzoxaborinine-4-carboxylic acid] | X (X = MPC@1 ≤ 5 μg/mL) | X (X = MPC@1 ≤ 5 μg/mL) | X (X = MPC@4 ≤ 5 μg/mL) | X (X = MPC@4 ≤ 5 μg/mL) | X (X = MPC@1 ≤ 5 μg/mL) | X (X = MPC@4 ≤ 5 μg/mL) | X (X = MPC@4 ≤ 5 μg/mL) | Y (Y = 5 μg/mL < MPC@1 ≤ 20 μg/mL) | X (X = MPC@1 ≤ 5 μg/mL) |
| O=C(O)c1cccc2c1OB(O)[C@H]1C[C@@H]21 [Compound 18, (1aS,7bR)-2,2-dihydroxy-1a,7b-dihydro-1H-cyclopropa[c][1,2]benzoxaborinine-4-carboxylic acid] | Y (Y = 5 μg/mL < MPC@1 ≤ 20 μg/mL) | X (X = MPC@1 ≤ 5 μg/mL) | X (X = MPC@4 ≤ 5 μg/mL) | X (X = MPC@4 ≤ 5 μg/mL) | X (X = MPC@1 ≤ 5 μg/mL) | Y (Y = 5 μg/mL < MPC@4 ≤ 20 μg/mL) | X (X = MPC@4 ≤ 5 μg/mL) | Z (Z = MPC@1 > 20 μg/mL) | X (X = MPC@1 ≤ 5 μg/mL) |
| O=C(O)c1c(F)c(F)cc2c1OB(O)C1CC21 (stereo not drawn) [Compound 19, 5,6-difluoro-2,2-dihydroxy-1a,7b-dihydro-1H-cyclopropa[c][1,2]benzoxaborinine-4-carboxylic acid] | X (X = MPC@1 ≤ 5 μg/mL) | X (X = MPC@1 ≤ 5 μg/mL) | X (X = MPC@4 ≤ 5 μg/mL) | X (X = MPC@4 ≤ 5 μg/mL) | X (X = MPC@1 ≤ 5 μg/mL) | X (X = MPC@4 ≤ 5 μg/mL) | X (X = MPC@4 ≤ 5 μg/mL) | Y (Y = 5 μg/mL < MPC@1 ≤ 20 μg/mL) | X (X = MPC@1 ≤ 5 μg/mL) |
